# Where “and” joins values, the source holds several entries; their conditions need not be identical. Equal values may be shown once. Where a name gives a salt, the structure may show the parent alone. Out of some 5,800 compounds screened, about 620 (11%) showed activity.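 The calls were made as follows: active = score above a cut-off or among the top three wells of a plate; in these data no inactive exceeds 0.85.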 The list shows a part of the results, in another mix than the full data.
# System: primary human hepatic stellate cells (donor 1)
# Assay: scaled lipid accumulation score (0 = DMSO-like, 1 = nortriptyline-like); higher = stronger HSC inactivation (lipid re-accumulation), active = hit call of the paper
# Settings: 48 h
# [1] = library stock concentration: 10 mM
# [2] = library stock concentration: 3.33 mM
# [3] = library stock concentration: 1 mM
smiles,measurement,setting,value
CC(CN)CC(=O)O (configuration not stated) [3-Methyl-GABA],scaled lipid accumulation score,[1],inactive: 0.011
O=C1CSC(c2ccccc2Cl)c2cc(Cl)ccc2N1 (configuration not stated),scaled lipid accumulation score,[1],inactive: ≤ -0.006
same,scaled lipid accumulation score,library stock concentration: 15.4 mM,inactive: 0.158
NNC(=O)c1ccc(O)cc1 [4-Hydroxybenzhydrazide],scaled lipid accumulation score,[1],inactive: ≤ -0.07
CCCC[C@H]1C(=O)O[C@H](C)[C@H](NC(=O)c2cccc(NC=O)c2OC)C(=O)O[C@@H](C)[C@@H]1OC(=O)CC(C)C [2-methoxyantimycin A3],scaled lipid accumulation score,library stock concentration: 9.4 mM,inactive: 0.292
C[C@H]1O[C@@H](O[C@@H]2C[C@H](O)[C@]3(CO)[C@H]4[C@H](O)C[C@]5(C)[C@H](C6=CC(=O)OC6)CC[C@]5(O)[C@@H]4CC[C@]3(O)C2)[C@@H](O)[C@H](O)[C@H]1O.O.O.O.O.O.O.O.O [Ouabain],scaled lipid accumulation score,[2],active: 1.05
same,scaled lipid accumulation score,[1],active: 1.06
C[C@]12CC[C@H]3[C@@H](CC[C@@]45O[C@@H]4C(O)=C(C#N)C[C@]35C)[C@@H]1CC[C@@H]2O,scaled lipid accumulation score,[1],inactive: ≤ 0
C[C@]12CC[C@H]3[C@@H](CC[C@@]45O[C@@H]4C(O)=C(C#N)C[C@]35C)[C@@H]1CC[C@@H]2O [Trilostane],scaled lipid accumulation score,[2],inactive: ≤ 0
same,scaled lipid accumulation score,[1],inactive: ≤ 0
O=C(N/N=C/c1ccc([N+](=O)[O-])o1)c1cc([N+](=O)[O-])cc([N+](=O)[O-])c1O,scaled lipid accumulation score,[1],inactive: ≤ 0
Cc1c(N)nc(C(CC(N)=O)NCC(N)C(N)=O)nc1C(=O)NC(C(=O)NC(C)C(O)C(C)C(=O)NC(C(=O)NCCc1nc(-c2nc(C(=O)NCCC[S+](C)C)cs2)cs1)C(C)O)C(O[C@@H]1O[C@@H](CO)[C@@H](O)[C@H](O)[C@@H]1O[C@H]1O[C@H](CO)[C@@H](O)[C@H](OC(N)=O)[C@@H]1O)c1cnc[nH]1 (some centres not stated) [Bleomycin Sulfate],scaled lipid accumulation score,[2],inactive: ≤ 0
same,scaled lipid accumulation score,[1],inactive: ≤ 0
CCCCC/C=C\C/C=C\C/C=C\C/C=C\CCCC(=O)NC(CO)CO [Arachidonoyl Serinol],scaled lipid accumulation score,[3],inactive: 0.066
C[C@@H]1NCCc2cc(O)c(O)cc21 [Salsolinol hydrobromide],scaled lipid accumulation score,,inactive: ≤ 0
CCC1(CC)C(=O)C=CNC1=O [Pyrithyldione],scaled lipid accumulation score,,inactive: ≤ 0
same,scaled lipid accumulation score,[1],inactive: 0.049
NCCCP(=O)(O)O [3-Aminopropylphosphonic acid],scaled lipid accumulation score,[1],inactive: ≤ 0
CCCOc1ccc2[nH]cc(C3=CCNCC3)c2n1,scaled lipid accumulation score,[1],inactive: 0.748
COc1ccc(Cc2nccc3cc(OC)c(OC)cc23)cc1OC [Papaverine hydrochloride],scaled lipid accumulation score,,inactive: ≤ 0
same,scaled lipid accumulation score,library stock concentration: 5.3 mM,inactive: ≤ -0.001
same,scaled lipid accumulation score,[1],inactive: ≤ 0 and inactive: ≤ -0.055
N=C1NC(=O)N2CC12 (configuration not stated),scaled lipid accumulation score,[1],inactive: 0.032
"NCC(O)c1ccc(O)cc1 (racemic) [(+,-)-Octopamine HCl]",scaled lipid accumulation score,[2],inactive: ≤ 0
same,scaled lipid accumulation score,[1],inactive: ≤ -0.001
"NCC(O)c1ccc(O)cc1 (racemic) [(+,-)-Octopamine hydrochloride]",scaled lipid accumulation score,,inactive: ≤ 0
"CCCCCCCCCC(=O)OC[C@H](COP(=O)([O-])OCC[N+](C)(C)C)OC(=O)CCCCCCCCC [1,2-Didecanoyl PC]",scaled lipid accumulation score,[3],inactive: ≤ 0
CN=C(NS(=O)(=O)c1ccc(Cl)cc1)N1C[C@H](c2ccccc2)C(c2ccc(Cl)cc2)=N1,scaled lipid accumulation score,[3],inactive: ≤ 0
CCCCCc1cc(O)c2c(c1)OC(C)(C)C1CCC(C(=O)O)=CC21 (configuration not stated) [Tetrahydrocannabinol-7-oic acid],scaled lipid accumulation score,[3],inactive: ≤ -0.021
CCCCC/C=C\C[C@@H](/C=C/C=C\C/C=C\CCCC(=O)O)OO,scaled lipid accumulation score,library stock concentration: 100 uM,inactive: ≤ -0.021
Cc1nc(N)sc1CCN [Amthamine dihydrobromide],scaled lipid accumulation score,[1],inactive: ≤ 0
[N-]=[N+]=CC(=O)OC[C@H](N)C(=O)O [Azaserine],scaled lipid accumulation score,[1],inactive: 0.135
same,scaled lipid accumulation score,library stock concentration: 11.6 mM,inactive: ≤ 0
"C[C@@H](N)Cc1cnc[nH]1 [Histamine, R(-)-alpha-methyl-, dihydrochloride]",scaled lipid accumulation score,[1],inactive: 0.085
Clc1cc(I)cc(Cl)c1NC1=NCCN1 [p-Iodoclonidine hydrochloride],scaled lipid accumulation score,[1],inactive: 0.059
COc1ccc2c3c([nH]c2c1)C(C)=NCC3 [Harmaline],scaled lipid accumulation score,[1],inactive: 0.389
COc1ccc2c3c([nH]c2c1)C(C)=NCC3 [Harmaline hydrochloride dihydrate],scaled lipid accumulation score,,inactive: 0.371
C[C@@H]1O[C@@H](O[C@H]2C[C@@H](O)[C@]3(CO)[C@H]4[C@H](O)C[C@]5(C)[C@@H](C6=CC(=O)OC6)CC[C@]5(O)[C@@H]4CC[C@]3(O)C2)[C@H](O)[C@H](O)[C@H]1O [Ouabain],scaled lipid accumulation score,library stock concentration: 8.6 mM,inactive: 0.734
CCN(C)C(=O)Oc1cccc([C@H](C)N(C)C)c1 [Rivastigmine],scaled lipid accumulation score,library stock concentration: 8 mM,inactive: ≤ -0.006
CCN(C)C(=O)Oc1cccc([C@H](C)N(C)C)c1 [Rivastigmine Tartrate],scaled lipid accumulation score,[2],inactive: ≤ 0
same,scaled lipid accumulation score,[1],inactive: ≤ 0
CCCN1CCC[C@H](c2cccc(O)c2)C1 [R(+)-3PPP hydrochloride],scaled lipid accumulation score,[1],inactive: ≤ 0
NC(=O)COc1c(F)cc(SCCNS(=O)(=O)c2ccccc2)cc1F,scaled lipid accumulation score,[1],inactive: ≤ -0.055
"C[N+]1(C)CCN(c2ccccc2)CC1 [1,1-Dimethyl-4-phenyl-piperazinium iodide]",scaled lipid accumulation score,[1],inactive: ≤ -0.07
C[N+]1(C)CCN(c2ccccc2)CC1,scaled lipid accumulation score,[1],inactive: ≤ 0
C[C@H](Cc1ccc2c(c1)OC(C(=O)O)(C(=O)O)O2)NC[C@H](O)c1cccc(Cl)c1,scaled lipid accumulation score,[1],inactive: ≤ 0
O=c1[nH]c2ccccc2n1C1CCN(CCCC(c2ccc(F)cc2)c2ccc(F)cc2)CC1 [Pimozide],scaled lipid accumulation score,[1],active: 1.21
C[N+]1(C)[C@@H]2C[C@@H](OC(=O)[C@H](CO)c3ccccc3)C[C@H]1[C@@H]1O[C@@H]12 [(-)-Scopolamine methyl bromide],scaled lipid accumulation score,[1],inactive: ≤ 0
C[N+]1(C)[C@@H]2C[C@@H](OC(=O)[C@H](CO)c3ccccc3)C[C@H]1[C@@H]1O[C@@H]12 [Methscopolamine bromide],scaled lipid accumulation score,library stock concentration: 5 mM,inactive: 0.005
same,scaled lipid accumulation score,[1],inactive: ≤ 0
C[N+]1(C)[C@@H]2C[C@@H](OC(=O)[C@H](CO)c3ccccc3)C[C@H]1[C@@H]1O[C@@H]12 [Methscopolamine],scaled lipid accumulation score,[2],inactive: ≤ 0
same,scaled lipid accumulation score,[1],inactive: ≤ 0

# Source: the supplement of paper PMC9135407
